Test results as given in the supplement of paper PMC3334620.
Whole data set: some 33,000 sequences, median “E-score (-0.5 to 0.5)” near -0.013, cut for the highest 2% near 0.3. The list shows a part of the results.

The sequences below were run against T1, Msn1 (UniProt P22148) (assay: PBM E-score (8-mer binding enrichment) (E-score (-0.5 to 0.5)); higher = stronger / more preferred TF binding; most listed sequences are background and not binding sites). Details: protein concentration: 200 nM; construct: GST-full length.
T1 sequence: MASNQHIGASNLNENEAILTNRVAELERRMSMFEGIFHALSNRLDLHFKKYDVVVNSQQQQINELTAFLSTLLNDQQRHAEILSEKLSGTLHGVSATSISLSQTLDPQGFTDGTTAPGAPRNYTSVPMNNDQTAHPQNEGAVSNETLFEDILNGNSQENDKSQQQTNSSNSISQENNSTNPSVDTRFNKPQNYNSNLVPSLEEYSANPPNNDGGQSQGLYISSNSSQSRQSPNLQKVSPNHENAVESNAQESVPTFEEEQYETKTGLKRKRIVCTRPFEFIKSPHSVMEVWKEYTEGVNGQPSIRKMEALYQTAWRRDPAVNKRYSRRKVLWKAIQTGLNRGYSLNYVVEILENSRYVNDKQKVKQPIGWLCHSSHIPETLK
Method in brief: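 Universal all-10-mer Agilent arrays, double-stranded by primer extension on fresh or once-stripped slides, were probed with about 100-200 nM GST-tagged yeast transcription factors made by PURExpress. Fluorescent anti-GST detected bound protein, and masliner normalised the scans. E-scores from the Universal PBM Analysis Suite were given to each ungapped eight-base word pooled with its reverse complement.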

Sequence	PBM E-score
AGCGAAGA	-0.0309
AAGCTCCG	0.0967
TCGTCAAA	0.0563
CCCGTTAC	-0.0443
AAACACAG	0.211
GATTTTCC	-0.0436
AAACTGAC	0.0261
ACTAATAG	0.179
GTACTGTA	-0.0264
ATGGCGAC	0.0843
TCGGTCCA	-0.0358
ACGAACTA	0.11
CTCTTCAA	-0.0922
TGATGCCA	-0.018
CGGTTGTA	-0.139
ATTCAAAA	0.109
CGGCGAAC	0.0275
ATCGAGTA	-0.0502
AGTTATGA	0.0272
CTTTGTGC	0.058
TCCACTCA	-0.212
CCGCATTA	0.00372
ATACCCTC	0.0182
AAAATAAA	0.0137
GTGTGCGA	-0.2

Sequence	PBM E-score
CGGTCGAC	0.0687
GTTGAGGA	-0.00729
AGCCGGGA	0.131
ATGTCAGC	0.194
ACGGTTCT	-0.0415
ATGTTCTC	0.147
CTACTTTC	0.0454
AACGGACG	0.0165
CGCGGCGA	0.176
AGAGTGAT	0.0647
GTTAATTA	0.115
CTTTAACA	0.0851
CTATTAGA	-0.141
ATGGTCTA	-0.143
CCAATAGG	-0.0111
GAAACGTC	0.0634
TCTGAACA	0.0541
AAGTTACC	0.123
CTACGAAC	0.0953
CCGGCCCA	-0.312
CCCGATAC	0.133
GTGCCAAA	-0.0718
AAATATCA	0.135
ATACAGAT	0.2
CTCGCATA	-0.0411

Sequence	PBM E-score
ACTAGTCA	-0.064
AAGGGTTG	-0.06
CTACAAGC	-0.064
ACAAAATG	0.312
GGTAGCGA	-0.0657
CTCGTTCC	-0.0798
TCCTATCA	-0.12
ATTCTATA	0.159
ATACGCTG	-0.0534
CTAAGGTC	-0.0691
GGACGAGA	0.172
CATGGGCG	0.0816
AAGAACTC	-0.0785
GCCTGAGA	-0.014
ATGTCATG	0.411
GCAAGCAC	-0.21
TATACACA	0.0182
ATTCGTAA	0.0882
ATCATGTA	0.0784
GATACCGC	0.0847
CGAGACCA	-0.00458
CGTCACAA	0.137
CAGTTAGA	0.0714
CCCCTCTC	-0.253
ATGATCGC	-0.0888

Sequence	PBM E-score
AGCGGGAA	0.0246
ATGACACA	0.287
CTTCCTCA	-0.228
AATTGATA	0.217
CAGTACCA	-0.0517
AGATCCTG	-0.014
CAGTGGAA	-0.0963
GTTACGCA	-0.00599
CCGCATCA	-0.0818
AATTGACG	-0.024
CGGATACA	0.0726
CCTTAACC	-0.151
CCAGAGCA	-0.186
GATTAGGC	0.134
ACGATTAC	0.0928
CATGGCCA	-0.0573
TCGAGAGA	-0.091
GCACGACA	-0.045
GTGATTAA	-0.0255
GATTCTAC	-0.049
ACGGAATC	0.109
AAAAGTCG	0.248
CGGCCGCA	-0.222
AAACCAGT	-0.0705
CAATCTCA	-0.0159

Sequence	PBM E-score
GCGGTTCC	-0.0262
AAACGCGT	0.103
AACTCCAT	0.0337
ATACTCCA	0.046
CCCGGTTA	-0.154
ACCCTGTG	-0.118
GCAGCCAC	-0.161
CGAACTCA	-0.058
TAGGAGCA	-0.0495
AATATTTC	0.103
AGTTTGCG	0.0266
CGATCGTA	0.187
AAGAATGG	-0.0359
CTGCCCTA	-0.0394
GATGTCGA	0.0163
CTAAGCCC	-0.154
CTACCTAG	-0.18
AAGGTAAT	0.0993
CGAGGGAC	-0.00744
AACTGGCG	-0.122
AATGCCGC	0.0604
CGGCACCG	-0.0171
GAACAACC	0.11
CACGACTC	0.0981
CAAACTTG	0.0455

Sequence	PBM E-score
CAATGCTC	-0.145
ATTGTAAG	-0.187
AAGTCCCC	0.0292
CATAGTAG	0.0607
CTATGAGC	-0.19
TAGCTAGA	0.0429
AAGTACGG	0.0556
AACCCGGG	-0.0877
GAGGGTGA	-0.104
GACGTTGC	-0.0501
ATATCATA	0.216
ATATGCGC	-0.129
ATGAGGCA	-0.288
CTTATAGC	0.142
CATCCAAC	-0.00221
AGGTACCC	-0.12
GCAGTCGC	-0.133
GGCCGTGA	-0.00697
ATAGGGGA	-0.126
AGTATGAA	0.0712
AGTTTGAG	-0.0492
ACTAAGCT	0.0437
CACCACCG	-0.208
AGACTGCC	-0.0572
AGCCAGTC	-0.293

Sequence	PBM E-score
CCGTGGGC	-0.129
AGAAGCGG	-0.101
ACTCGGAC	0.281
ATGACGAA	0.0573
CTACCAGC	-0.164
ACTACAGG	0.094
CAGAGGGC	-0.21
GAAGCTCA	-0.00485
CGCCTCCC	-0.4
AAAACGGG	0.145
AGGCAGCC	-0.197
AATTGGGG	-0.0385
AACCCGTT	-0.0539
GCTCAGAC	-0.082
ACTCGAGT	0.14
CACCCAGC	-0.264
AGAATGAA	0.0547
TAGTTGGA	0.072
AGACGGTA	-0.0408
TCGGCTAA	0.116
CCACCGAC	-0.245
AATCCTGC	-0.0314
